Experimental findings from PMC12136788 are described below.

The list shows a part of the results.

B1: chr13:101061967:101062118:-|CDS|ENSG00000102452|control|control|control (ssRNA)
RNA: GGGAGUUCUACAGUCCGACGAUCCAUCCGGAAGAGCUUGCAGCUGGAGGAACUCCUGGCGAGGGAGCAGCUGGAGUACACCAUAGAGGAGGAGGUGGCCAAGCAGACCAUCCGCAUGUGGCUCAAGAAGUGCCUGAAGCGCAUCAACAGAGGAUUGAGCAUCA
B2: ENSG00000070961:be:win_5251|3pUTR|ENSG00000070961|bound_else_gene|NA|bound_elsewhere_windowed (ssRNA)
RNA: GGGAGUUCUACAGUCCGACGAUCUGGAUUCUUUAGCUCUCUUUUUCUUUCCUUCAUCUACCUUCUUCUCUUUUUUGCCUCUGUCUUUACCCUUUAGAAACUGGCAUGUGUUAGGGCCCAGAUUUCACCAGAUACACAAUCCUCCAACAGAGGAUUGAGCAUCA
B3: chr16:18841627:18841728:-|CDS|ENSG00000157106|msi1|FALSE|bound_elsewhere (ssRNA)
RNA: GGGAGUUCUACAGUCCGACGAUCUACAAUUAAUCGCCAAGAAACACCCCGGUUCCAUGCUCGACACUAUUCUGUAACACCACUAGGAACAAGAUCAGGACUAAUCCAGUGGGUAGAUGGAGCCACACCCUUAUUUGGUCUUUACAACAGAGGAUUGAGCAUCA
B4: chr1:225491636:225491737:-|3pUTR|ENSG00000154380|msi1|FALSE|unique (ssRNA)
RNA: GGGAGUUCUACAGUCCGACGAUCGUACUUUGAAUUCCAUAGGAAAAAGCACUCAGAAGAAAAAGUCUACAUUGGCUAGUGUUUAGAUUGAGAGUUAAUUUUCCCAUCAAGUCCAAAAGUUUCCAUCCAAGUCUAUAGAAACUGCAACAGAGGAUUGAGCAUCA
B5: ENSG00000198589:be:win_4551|CDS|ENSG00000198589|bound_else_gene|NA|bound_elsewhere_windowed (ssRNA)
RNA: GGGAGUUCUACAGUCCGACGAUCAGUUGUUUUCAGAGACAUAGAGGAUAGCAAACAAGCUCAAUUUUUAGCCUUGGCAGUAGUAUACUUUAUCUCUGUUCUUAUGGUCUCCAAGUACAGAGACAUUUUGGAACCCCAAAAUGACAACAGAGGAUUGAGCAUCA
B6: chrX:141173234:141176580:-|three_prime_utr|ENSG00000182195|control|control|control (ssRNA)
RNA: GGGAGUUCUACAGUCCGACGAUCCUUGCCCUCCGGUCCCCUUACCUACCCGCGCCCGUCUGCUCUCUCUCUUCAUUUCUCCGUAGUGCUUGUCUUUGUUCCAGGAAUAGCGCUCCAGUUACCUGCUGCUGGGGUCGGGGCUGGCAACAGAGGAUUGAGCAUCA
B7: ENSG00000181544:stop:overlap|stop_codon|ENSG00000181544|stop_codon|NA|stop_codon (ssRNA)
RNA: GGGAGUUCUACAGUCCGACGAUCAUACUUCAUGUGAGUGGAAUCAUAGAGUAUUUAUAUUUUUGUACCUGGCUUAUUUUACUUAGCAUAAUGUCCUUGAGGUUCAUUCGUGUCAUAGCUUGUGACACUAUUUCCUUCUGUUUACAACAGAGGAUUGAGCAUCA
B8: ENSG00000090612:stop:overlap|stop_codon|ENSG00000090612|stop_codon|NA|stop_codon (ssRNA)
RNA: GGGAGUUCUACAGUCCGACGAUCUGCUCACCACAACGUCUGCUUCCCGAGUUCAAGUGGUUCUCUUGCCUCAGCCUCCUGAGUAGCUGGGAUUACAGGUCCCACCUCUCCAAGAACGAAACAGUUCAUGGGAUAGGAUCAGAACAACAGAGGAUUGAGCAUCA
B9: chr15:38484694:38484795:+|3pUTR|ENSG00000171262|unk|total|mutant (ssRNA)
RNA: GGGAGUUCUACAGUCCGACGAUCAUCCGAAACCGUGUUCCAAAUAACAUACUUGAAUAUCAUCUUUGAAGUAAACACCAUGUCCGACUCCCUGGUGAUACCACUCUUGAAUUGGUUAAUAUGUAAGAACAUUGUUUUUUAUUACAACAGAGGAUUGAGCAUCA
B10: chr15:59095394:59095499:+|3pUTR|ENSG00000157450|unk|total|mutant (ssRNA)
RNA: GGGAGUUCUACAGUCCGACGAUCUAAAUACCAUCCUUAAUACUGGGAACAGAAUACAACCCAUAUAAAUCAGAUGCAGGUGGCCGUCACAUCACCAGAGUGAUCAGUAUAAAUUUUCUUGGUGUAUCCUUUUCCUUUCAACACCAACAGAGGAUUGAGCAUCA
B11: chr2:135868693:135868794:-|CDS|ENSG00000076003|msi1|total|mutant (ssRNA)
RNA: GGGAGUUCUACAGUCCGACGAUCCCCAGAGCUUGUGAGCGGAACUUUUCUGUGCUUGGACUGUCAGACAGUGAUCAGGGAUGCCGAACAGCAGUUCAAAUACACACAGCCAAACAUCUGCCGAAAUCCAGUUUGUGCCAACAGCAACAGAGGAUUGAGCAUCA
B12: chr4:41958937:41959038:+|3pUTR|ENSG00000109133|msi1|FALSE|unique (ssRNA)
RNA: GGGAGUUCUACAGUCCGACGAUCUCUUGAACUCCUGGCCUCAAGUGAUCUGCCCGCCUCGACCUCCCAGAGUGCUGGGAUUAUAGGUGUGAGCCACUAAGCCUGGCUGAGACAACUAGUUUCCCUUAACUCAUUGGAAUUCUCCAACAGAGGAUUGAGCAUCA
B13: chr15:38470281:38470388:+|CDS|ENSG00000171262|unk|total|mutant (ssRNA)
RNA: GGGAGUUCUACAGUCCGACGAUCCUUCAAGCUUCACAGAUAUUACAGAACAAGAAACAUAAAAAUUCUCAAUCCGAUAAAAACCGUGAAGUUUAUCAGGAAGUUCAAGCUAUGUUUGAUACACUUGGUAUACCCAAGUCAACACAACAGAGGAUUGAGCAUCA
B14: chr7:30013596:30013706:-|3pUTR|ENSG00000106080|msi1|FALSE|unique (ssRNA)
RNA: GGGAGUUCUACAGUCCGACGAUCUUAUAUUCAAUAUUUACUUCUUAAGGCUAGCGGAAUAUCCUUCCUGGUUCUUUAAUGGGUAGUCUAUAGUAUAUUAUACUACAAUAACAUUGUAUCAUAAGAUAAAGUAGUAAACCAGUCCAACAGAGGAUUGAGCAUCA

The test has as its target MSI1 full-length (mouse, UniProt Q61474 1-362). Briefly: nsRBNS (natural sequence RNA bind-n-seq); RBNS binding buffer (assumed for nsRBNS): 25 mM Tris pH 7.5, 150 mM KCl, 3 mM MgCl2, 0.01% Triton X-100, 500 ug/ml BSA, 20 U/ml SUPERase-In, 4 C; UNK is unkempt and MSI1 is Musashi-1; names of the RNAs are library labels; protein concentration not given here; high values mean tight binding.
Sequence of UniProt Q61474 (Q61474 whole entry): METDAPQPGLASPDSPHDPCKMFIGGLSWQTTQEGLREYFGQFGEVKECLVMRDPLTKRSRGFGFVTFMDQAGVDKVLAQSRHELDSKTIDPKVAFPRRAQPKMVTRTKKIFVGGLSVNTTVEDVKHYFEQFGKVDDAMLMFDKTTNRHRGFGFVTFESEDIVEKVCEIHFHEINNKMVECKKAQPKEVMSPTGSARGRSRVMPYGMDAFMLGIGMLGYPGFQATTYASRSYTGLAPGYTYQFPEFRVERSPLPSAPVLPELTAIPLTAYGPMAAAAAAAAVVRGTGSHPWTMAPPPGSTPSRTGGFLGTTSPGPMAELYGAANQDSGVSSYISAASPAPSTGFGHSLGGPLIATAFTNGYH
The molecule B1 displayed a binding signal of 0.618 enrichment R. The value for B2 was 1.28 enrichment R; that for B3 was 0.768 enrichment R; that for B4 was 1.05 enrichment R. Consider B5, for which the binding signal amounted to 1.67 enrichment R. As for B6, the binding signal was 1.07 enrichment R. B7 gave a binding signal of 1.66 enrichment R. B8 displayed a binding signal of 0.562 enrichment R. The value for B9 was 0.321 enrichment R; that for B10 was 0.576 enrichment R.

Take B11: the binding signal is 0.443 enrichment R. Molecule B12 showed a binding signal of 0.442 enrichment R.

Consider B13, for which the binding signal is 0.182 enrichment R.

The molecule B14 came in with a binding signal of 8.22 enrichment R.
